Results from publication PMC12820563.
The list shows a part of the results. The list includes weakly bound sequences.

The sequences below were run against T1, MBP-FoxP3dN (UniProt Q99JB6) (assay: PD-seq (MBP pull-down with sequencing)). Details: 20 mM Tris-HCl pH 7.5, 100 mM NaCl, 1.5 mM MgCl2, 0.4 uM protein, 0.1 uM dsDNA library, 30 min, room temperature, amylose pull-down; high values mean tight binding; double strand, one strand shown.
T1 sequence: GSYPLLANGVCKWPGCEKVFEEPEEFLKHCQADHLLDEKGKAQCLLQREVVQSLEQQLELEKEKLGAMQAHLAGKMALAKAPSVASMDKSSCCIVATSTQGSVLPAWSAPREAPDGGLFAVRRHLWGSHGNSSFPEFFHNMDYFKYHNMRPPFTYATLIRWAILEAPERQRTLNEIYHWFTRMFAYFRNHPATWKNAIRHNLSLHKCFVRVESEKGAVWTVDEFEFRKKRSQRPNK
Work on “GATGATTGTTCTCCCAGCTGATGAATTAGTGCATTCGAGTAAACAAATTTTCCTAATCTTTCTGTTCAAGCGCCATCTAC” yielded a binding signal (RPM ratio (pull-down/input)) of 7.28. In the case of “GATGATTGTTCTCCCAGCTGATGAATTCCCGTCATCGAGTAAACAAATTTTCCTAATCTTTCTGTTCAAGCGCCATCTAC”, the binding signal (RPM ratio (pull-down/input)) was 0.423. With “GATGATTGTTCTCCCAGCTGATGAATTAATTGCATCGAGTAAACAAATTTTCCTAATCTTTCTGTTCAAGCGCCATCTAC” the binding signal (RPM ratio (pull-down/input)) was 1.93. “GATGATTGTTCTCCCAGCTGATGAATTTTAACAATCGAGTAAACAAATTTTCCTAATCTTTCTGTTCAAGCGCCATCTAC” gave a binding signal (RPM ratio (pull-down/input)) of 0.448. In the case of “GATGATTGTTCTCCCAGCTGATGAATTAGAATAATCGAGTAAACAAATTTTCCTAATCTTTCTGTTCAAGCGCCATCTAC”, the binding signal (RPM ratio (pull-down/input)) was 0.283. “GATGATTGTTCTCCCAGCTGATGAATTATTGGACTCGAGTAAACAAATTTTCCTAATCTTTCTGTTCAAGCGCCATCTAC” showed a binding signal (RPM ratio (pull-down/input)) of 0.336. “GATGATTGTTCTCCCAGCTGATGAATTCGAGAACTCGAGTAAACAAATTTTCCTAATCTTTCTGTTCAAGCGCCATCTAC” showed a binding signal (RPM ratio (pull-down/input)) of 0.201. Sequence “GATGATTGTTCTCCCAGCTGATGAATTCCACCCTTCGAGTAAACAAATTTTCCTAATCTTTCTGTTCAAGCGCCATCTAC” has a binding signal (RPM ratio (pull-down/input)) of 0.301. Work on “GATGATTGTTCTCCCAGCTGATGAATTACCATGGTCGAGTAAACAAATTTTCCTAATCTTTCTGTTCAAGCGCCATCTAC” yielded a binding signal (RPM ratio (pull-down/input)) of 0.29. “GATGATTGTTCTCCCAGCTGATGAATTACCTTAGTCGAGTAAACAAATTTTCCTAATCTTTCTGTTCAAGCGCCATCTAC” gave a binding signal (RPM ratio (pull-down/input)) of 0.241. For “GATGATTGTTCTCCCAGCTGATGAATTACAGCGTTCGAGTAAACAAATTTTCCTAATCTTTCTGTTCAAGCGCCATCTAC”, the binding signal (RPM ratio (pull-down/input)) was 1.22. Work on “GATGATTGTTCTCCCAGCTGATGAATTGCCGCATTCGAGTAAACAAATTTTCCTAATCTTTCTGTTCAAGCGCCATCTAC” yielded a binding signal (RPM ratio (pull-down/input)) of 7.28. “GATGATTGTTCTCCCAGCTGATGAATTAAGCCTATCGAGTAAACAAATTTTCCTAATCTTTCTGTTCAAGCGCCATCTAC” showed a binding signal (RPM ratio (pull-down/input)) of 1.76. Work on “GATGATTGTTCTCCCAGCTGATGAATTATTGCCGTCGAGTAAACAAATTTTCCTAATCTTTCTGTTCAAGCGCCATCTAC” yielded a binding signal (RPM ratio (pull-down/input)) of 1.03. With “GATGATTGTTCTCCCAGCTGATGAATTTCTCGATTCGAGTAAACAAATTTTCCTAATCTTTCTGTTCAAGCGCCATCTAC” the binding signal (RPM ratio (pull-down/input)) was 0.237. “GATGATTGTTCTCCCAGCTGATGAATTCGGCGATTCGAGTAAACAAATTTTCCTAATCTTTCTGTTCAAGCGCCATCTAC” was tested, and the binding signal (RPM ratio (pull-down/input)) was 1.04. With “GATGATTGTTCTCCCAGCTGATGAATTGGATCCTTCGAGTAAACAAATTTTCCTAATCTTTCTGTTCAAGCGCCATCTAC” the binding signal (RPM ratio (pull-down/input)) was 0.253. “GATGATTGTTCTCCCAGCTGATGAATTGAGAGGCTCGAGTAAACAAATTTTCCTAATCTTTCTGTTCAAGCGCCATCTAC” gave a binding signal (RPM ratio (pull-down/input)) of 0.392. “GATGATTGTTCTCCCAGCTGATGAATTATCCGAGTCGAGTAAACAAATTTTCCTAATCTTTCTGTTCAAGCGCCATCTAC” gave a binding signal (RPM ratio (pull-down/input)) of 0.234. “GATGATTGTTCTCCCAGCTGATGAATTCCCTTTCTCGAGTAAACAAATTTTCCTAATCTTTCTGTTCAAGCGCCATCTAC” showed a binding signal (RPM ratio (pull-down/input)) of 0.295. “GATGATTGTTCTCCCAGCTGATGAATTTGGGGTTTCGAGTAAACAAATTTTCCTAATCTTTCTGTTCAAGCGCCATCTAC” was tested, and the binding signal (RPM ratio (pull-down/input)) was 0.898. “GATGATTGTTCTCCCAGCTGATGAATTTGCGCGTTCGAGTAAACAAATTTTCCTAATCTTTCTGTTCAAGCGCCATCTAC” showed a binding signal (RPM ratio (pull-down/input)) of 2.13. “GATGATTGTTCTCCCAGCTGATGAATTATTTGCTTCGAGTAAACAAATTTTCCTAATCTTTCTGTTCAAGCGCCATCTAC” was tested, and the binding signal (RPM ratio (pull-down/input)) was 2.24. In the case of “GATGATTGTTCTCCCAGCTGATGAATTATCGTGGTCGAGTAAACAAATTTTCCTAATCTTTCTGTTCAAGCGCCATCTAC”, the binding signal (RPM ratio (pull-down/input)) was 0.336. For “GATGATTGTTCTCCCAGCTGATGAATTATCGCGATCGAGTAAACAAATTTTCCTAATCTTTCTGTTCAAGCGCCATCTAC”, the binding signal (RPM ratio (pull-down/input)) was 0.519. “GATGATTGTTCTCCCAGCTGATGAATTGAAAAGGTCGAGTAAACAAATTTTCCTAATCTTTCTGTTCAAGCGCCATCTAC” showed a binding signal (RPM ratio (pull-down/input)) of 0.133. “GATGATTGTTCTCCCAGCTGATGAATTCGCCTCGTCGAGTAAACAAATTTTCCTAATCTTTCTGTTCAAGCGCCATCTAC” showed a binding signal (RPM ratio (pull-down/input)) of 1.01. “GATGATTGTTCTCCCAGCTGATGAATTGAGCCCGTCGAGTAAACAAATTTTCCTAATCTTTCTGTTCAAGCGCCATCTAC” showed a binding signal (RPM ratio (pull-down/input)) of 1.06. “GATGATTGTTCTCCCAGCTGATGAATTTTACGGATCGAGTAAACAAATTTTCCTAATCTTTCTGTTCAAGCGCCATCTAC” was tested, and the binding signal (RPM ratio (pull-down/input)) was 0.184. “GATGATTGTTCTCCCAGCTGATGAATTGTACCTATCGAGTAAACAAATTTTCCTAATCTTTCTGTTCAAGCGCCATCTAC” was tested, and the binding signal (RPM ratio (pull-down/input)) was 0.561. With “GATGATTGTTCTCCCAGCTGATGAATTTAGTCGTTCGAGTAAACAAATTTTCCTAATCTTTCTGTTCAAGCGCCATCTAC” the binding signal (RPM ratio (pull-down/input)) was 0.962. “GATGATTGTTCTCCCAGCTGATGAATTTTGGAATTCGAGTAAACAAATTTTCCTAATCTTTCTGTTCAAGCGCCATCTAC” gave a binding signal (RPM ratio (pull-down/input)) of 0.747.
